Data reported in US20260265359A1 (Hoffmann-La Roche, published 2026).
Each block holds one binder with its values, some of them ahead of it.

Assays:
[1] = target: T1, recombinant human Ang-2 (human, UniProt O15123 19-496, limits assumed); assay: ELISA on plate-coated recombinant human Ang-2; anti-human IgG1-Fc-HRP, OD450
T1 construct: also called Angiopoietin-2; hAng-2
T1 sequence (looked up): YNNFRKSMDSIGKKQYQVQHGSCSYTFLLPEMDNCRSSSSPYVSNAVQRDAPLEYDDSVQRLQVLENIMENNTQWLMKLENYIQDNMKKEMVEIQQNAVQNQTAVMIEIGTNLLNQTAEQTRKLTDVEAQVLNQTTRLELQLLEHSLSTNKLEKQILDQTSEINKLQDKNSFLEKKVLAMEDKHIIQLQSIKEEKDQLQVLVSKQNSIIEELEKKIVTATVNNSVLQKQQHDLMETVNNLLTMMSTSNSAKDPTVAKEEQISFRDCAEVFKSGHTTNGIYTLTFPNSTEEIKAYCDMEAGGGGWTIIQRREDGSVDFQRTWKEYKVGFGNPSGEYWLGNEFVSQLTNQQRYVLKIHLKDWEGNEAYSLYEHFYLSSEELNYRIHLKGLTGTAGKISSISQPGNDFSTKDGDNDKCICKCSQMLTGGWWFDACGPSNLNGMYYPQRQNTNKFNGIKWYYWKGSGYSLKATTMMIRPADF
Experimental: (§1) After non-specific blocking using 1% BSA at 25° C. for 1 hour, a series of dilutions of test antibodies (“Abs”) were added into the coated wells and incubated at 25° C. for 1 hour. The bound Abs were detected using a secondary Ab (goat anti-human IgG1-Fc) conjugated with HRP followed by OD₄₅₀ reading.

[2] = target: T2, recombinant human IL-6R (human, UniProt P08887 20-365, limits assumed); assay: ELISA on plate-coated recombinant human IL-6R; anti-human IgG1-Fc-HRP, OD450
T2 construct: Recombinant protein used in ELISA and as SPR analyte; also called hIL-6R
T2 sequence (looked up): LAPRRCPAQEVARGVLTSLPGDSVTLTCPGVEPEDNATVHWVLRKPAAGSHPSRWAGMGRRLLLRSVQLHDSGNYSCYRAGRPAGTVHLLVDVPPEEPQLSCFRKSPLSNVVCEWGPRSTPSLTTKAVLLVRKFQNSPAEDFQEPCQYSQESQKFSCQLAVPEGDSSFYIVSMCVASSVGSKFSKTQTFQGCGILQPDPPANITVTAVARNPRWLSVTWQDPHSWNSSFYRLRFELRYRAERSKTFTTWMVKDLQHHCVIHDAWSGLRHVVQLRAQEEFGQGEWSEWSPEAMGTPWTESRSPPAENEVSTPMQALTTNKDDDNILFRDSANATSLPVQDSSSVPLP
Experimental: as §1
The same ELISA procedure was performed with recombinant human IL-6R. […] Vobarilizumab is a single domain antibody against IL-6R. B781402 and B781405 are bispecific fusion antibodies that inhibit VEGF-A, B, PIGF and IL-6R.

[3] = target: T3, recombinant human VEGF-A165 (human, UniProt P15692-4 27-191); assay: ELISA on plate-coated recombinant human VEGF-A165; anti-human IgG1-Fc-HRP, OD450
T3 sequence (looked up): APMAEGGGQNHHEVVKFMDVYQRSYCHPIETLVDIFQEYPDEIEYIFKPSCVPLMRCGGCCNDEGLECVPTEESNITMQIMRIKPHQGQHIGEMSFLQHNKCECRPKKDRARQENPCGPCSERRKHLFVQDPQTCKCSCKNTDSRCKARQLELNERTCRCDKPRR
Experimental: as §1

[4] = target: T3, recombinant human VEGF-A165; assay: cell-based or functional assay

EC50 [1]: 0.228 nM
EC50 [2]: 0.218 nM
EC50 [3]: 0.711 nM
IC50, inhibition of VEGF-A165-stimulated VEGFR-2 NF-AT luciferase reporter (HEK-293), luminescence [4]: 0.262 nM
B1: EB-105BIc1 (other)
heavy chain (tocilizumab heavy chain, linker, Ang-2 sdAb A38-196): QVQLQESGPGLVRPSQTLSLTCTVSGYSITSDHAWSWVRQPPGRGLEWIGYISYSGITTYNPSLKSRVTMLRDTSKNQFSLRLSSVTAADTAVYYCARSLARTTAMDYWGQGSLVTVSSASTKGPSVFPLAPSSKSTSGGTAALGCLVKDYFPEPVTVSWNSGALTSGVHTFPAVLQSSGLYSLSSVVTVPSSSLGTQTYICNVNHKPSNTKVDKKV[human IgG1 Fc skipped]GGSGGGGSEVQLVESGGGLVQPGGSLRLSCAASGLYFSSYDIAWVRQAPGKGLEFVSAIDVSGEHTYYADSVKGRFTISRDNAKNTLYLQMNSLRAEDTAVYYCNAVKWSDYGPDNDYWGQGTLVTVSS
light chain (VEGFR-1-D2, VEGFR-2-D3, tocilizumab light chain): SDTGRPFVEMYSEIPEIIHMTEGRELVIPCRVTSPNITVTLKKFPLDTLIPDGKRIIWDSRKGFIISNATYKEIGLLTCEATVNGHLYKTNYLTHRQTNTIIDVVLSPSHGIELSVGEKLVLNCTARTELNVGIDFNWEYPSSKHQHKKLVNRDLKTQSGSEMKKFLSTLTIDGVTRSDQGLYTCAASSGLMTKKNSTFVRVHEKDIQMTQSPSSLSASVGDRVTITCRASQDISSYLNWYQQKPGKAPKLLIYYTSRLHSGVPSRFSGSGSGTDFTFTISSLQPEDIATYYCQQGNTLPYTFGQGTKVEIKRTVAAPSVFIFPPSDEQLKSGTASVVCLLNNFYPREAKVQWKVDNALQSGNSQESVTEQDSKDSTYSLSSTLTLSKADYEKHKVYACEVTHQGLSSPVTKSFNRGEC
notes: also called MFDDHD001

EC50 [1]: 0.124 nM
EC50 [2]: 0.227 nM
EC50 [3]: 0.667 nM
IC50, inhibition of VEGF-A165-stimulated VEGFR-2 NF-AT luciferase reporter (HEK-293), luminescence [4]: 0.289 nM
B2: EB-105BIc2 (other)
heavy chain (tocilizumab heavy chain, linker, Ang-2 sdAb A41-089): QVQLQESGPGLVRPSQTLSLTCTVSGYSITSDHAWSWVRQPPGRGLEWIGYISYSGITTYNPSLKSRVTMLRDTSKNQFSLRLSSVTAADTAVYYCARSLARTTAMDYWGQGSLVTVSSASTKGPSVFPLAPSSKSTSGGTAALGCLVKDYFPEPVTVSWNSGALTSGVHTFPAVLQSSGLYSLSSVVTVPSSSLGTQTYICNVNHKPSNTKVDKKV[human IgG1 Fc skipped]GGSGGGGSEVQLQESGGGLVQPGGSLRLSCAASGFTLDAYAIGWFRQAPGKEREGVSTIGKSDGSTCYADSVKGRFTISRDNAKNTVWLQMNSLRAEDTAVYYCAARPWWVGDAPSIAAEYEYDLWGQGTQVTVSS
light chain (VEGFR-1-D2, VEGFR-2-D3, tocilizumab light chain): B1 light chain (VEGFR-1-D2, VEGFR-2-D3, tocilizumab light chain)
notes: also called MFDDHD002
